The structures appear in SMILES notation. About 150 (12%) of roughly 1,300 compounds were called active. About 30% were inconclusive and are not listed. Calls come from the whole dose curve; as a rule, active = well fitted cell-killing curve with a large enough effect; inconclusive = small, poorly fitted or top-dose-only effect, or effect the other way; inactive = flat fitted curve, though single readings scatter. The list shows a part of the results, in another mix than the full data.
% is set by controls: 0 for no effect and ±100 for the full control effect; potency is the fitted concentration of half-maximal effect.

This experiment in a line: qHTS of small molecules that selectively kill Giardia lamblia: Hit Validation in HepG2 cytotox.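 For activity change, negative = cytotoxicity: viability measured as cellular ATP by ATPLite luminescence.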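 Note: compound exposure lasted overnight at 37 deg C; nearly all actives have a fitted effect of over 55% in size.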 Particulars: cell viability; Potency: HepG2 cytotoxicity; series mostly up to 38.3 µM; activity change, negative = cytotoxicity: at the top concentration. Summed up:
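Counterscreen cytotoxicity: ATPLite luminescence (15 min, room temperature) measured in HepG2 cells exposed overnight at 37 deg C to pin-transferred compound (23 nL) after overnight pre-incubation.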
A general note: In qHTS, concentration-response curves come from the screen itself.
For `COc1cc(Nc2ccc(C)cc2)c([N+](=O)[O-])nc1[N+](=O)[O-]`, the “activity change, negative = cytotoxicity” value is inactive: 14.5%. As to `O=C(Nc1ccc(Cc2ccncc2)cc1)c1ccc([N+](=O)[O-])o1`, the Potency was active: 6.56 µM. As to `CCn1c(CCNC(=O)c2ccc(F)cc2)nc2ccccc21`, the “activity change, negative = cytotoxicity” value is inactive: -3.8%. Regarding `O=C(c1cccc(F)c1)N1CCN(c2ccc([N+](=O)[O-])c3cccnc23)CC1`, the “activity change, negative = cytotoxicity” value is inactive: -12.1%. Take `CC1CCCCC1NC(=O)COc1cccnc1[N+](=O)[O-]` (centres undefined): the “activity change, negative = cytotoxicity” value is inactive: 1.19%. Regarding `COc1ccc(CN2C(=O)C(CC(C)C)Nc3ncnc(N4CCCCC4)c32)cc1` (centres undefined), the “activity change, negative = cytotoxicity” value was inactive: -2.29%.

For the molecule `Cc1ccc(C(=O)c2c3ccc([N+](=O)[O-])cc3[n+]([O-])n2CCC(N)=O)cc1`, the “activity change, negative = cytotoxicity” value is inactive: 19%. In the case of `CC1CCCCC1NC(=O)NC(=O)COC(=O)c1cncc(Br)c1` (centres undefined), the “activity change, negative = cytotoxicity” value is inactive: 1.04%. With `COC(=O)[C@@]12CCCCN1[C@H](c1ccc(-c3ccc(C(C)=O)cc3)cc1)[C@@H]1C(=O)N(C)C(=O)[C@@H]12`, the “activity change, negative = cytotoxicity” value was inactive: 10.7%.

As for `O=C(NCCc1ccccc1)c1ccc(CS(=O)(=O)c2ccc(Cl)cc2)o1`, the “activity change, negative = cytotoxicity” value was inactive: 0.864%.

On to `COc1ccc(CNC(=O)COc2cccnc2[N+](=O)[O-])cc1`, for which the “activity change, negative = cytotoxicity” value is inactive: 15.6%. Turning to `Nc1ncnc2c1ncn2C1O[C@H](CO)[C@@H](O)[C@@H]1O` (some centres undefined), the “activity change, negative = cytotoxicity” value was inactive: 12.7%. Consider `CC1S/C(=C(\C#N)C(N)=O)N(c2ccc(F)cc2)C1=O` (centres undefined), for which the “activity change, negative = cytotoxicity” value is inactive: -24.2%. For `C#CCOCCOCCOCCNc1nc(N2CCN(C(=O)[C@H](CCC(=O)O)n3cc([C@@H](N)CC(N)=O)nn3)CC2)nc(N2CCN(C(=O)[C@H](CCC(=O)O)n3cc([C@@H](N)CC(N)=O)nn3)CC2)n1`, the “activity change, negative = cytotoxicity” value is inactive: 9%. With `Cc1ccc(S(=O)(=O)Nc2ccc(C(OC(=O)c3ccccc3[N+](=O)[O-])(C(F)(F)F)C(F)(F)F)cc2)cc1`, the “activity change, negative = cytotoxicity” value was inactive: -2.37%. As to `CCCSc1nc2c(cnn2-c2ccc(C)c(C)c2)c(=O)[nH]1`, the “activity change, negative = cytotoxicity” value is inactive: 0.777%.

Take `O=C1/C(=C/c2ccncc2)CCC/C1=C\c1ccncc1`: the Potency is active: 4.14 µM.

As to `Cc1c(N=Nc2ccc(N(C)C)cc2)c(=O)n(-c2ccccc2)n1C`, the “activity change, negative = cytotoxicity” value was inactive: 0.797%. As for `COc1ccc(NC(=O)c2ccc([N+](=O)[O-])o2)cc1`, the Potency was active: 3.69 µM. Consider `CC[C@]1(C(=O)OC)[C@H]2C(=O)N(C)C(=O)[C@H]2[C@H]2CN(C)C(=NC)N21`, for which the “activity change, negative = cytotoxicity” value was inactive: 10.4%. Regarding `Cc1ccc(Nc2nc(=O)c3cc([N+](=O)[O-])ccc3s2)cc1`, the “activity change, negative = cytotoxicity” value is inactive: 10.3%. Regarding `CCCCCCSc1ccc([C@H]2N[C@@](Cc3ccccc3)(C(=O)OC)[C@H]3C(=O)N(C)C(=O)[C@@H]23)cc1`, the “activity change, negative = cytotoxicity” value is inactive: -6.45%. For the molecule `O=[N+]([O-])c1cncc([N+](=O)[O-])c1Nc1cccc(O)c1`, the “activity change, negative = cytotoxicity” value was inactive: 27.5%.

As to `CCN(C(=O)C1CCN(S(=O)(=O)c2ccc3c(c2)oc(=O)n3C)CC1)c1cccc(C)c1`, the “activity change, negative = cytotoxicity” value was inactive: 4.95%.

The record behind these values is PubChem BioAssay AID588382 (National Center for Advancing Translational Sciences (NCATS), 2011).
